Measured values as given in PubChem BioAssay AID2451 (National Center for Advancing Translational Sciences (NCATS), 2010).
About 2,100 (0.72%) of roughly 290,000 compounds were called active. Inconclusive results, whose numbers are uncertain, are shown with a selection of clear calls. Calls come from the whole dose curve; as a rule, active = well fitted inhibition curve with a large enough effect; inconclusive = small, poorly fitted or top-dose-only effect, or effect the other way; inactive = flat fitted curve, though single readings scatter. Where the call is inconclusive, the potency comes from a doubtful curve fit.

These compounds were tested against Fructose-bisphosphate aldolase (Giardia intestinalis (strain ATCC 50803 / WB clone C6)) (UniProt A8B2U2) (assay: qHTS Assay for Inhibitors of Fructose-1,6-bisphosphate Aldolase from Giardia Lamblia). Conditions: purified Giardia FBPA; activity, negative = inhibition: at 59.6 µM (top of the series) unless noted.
Chain of UniProt A8B2U2 (A8B2U2 whole entry, looked up): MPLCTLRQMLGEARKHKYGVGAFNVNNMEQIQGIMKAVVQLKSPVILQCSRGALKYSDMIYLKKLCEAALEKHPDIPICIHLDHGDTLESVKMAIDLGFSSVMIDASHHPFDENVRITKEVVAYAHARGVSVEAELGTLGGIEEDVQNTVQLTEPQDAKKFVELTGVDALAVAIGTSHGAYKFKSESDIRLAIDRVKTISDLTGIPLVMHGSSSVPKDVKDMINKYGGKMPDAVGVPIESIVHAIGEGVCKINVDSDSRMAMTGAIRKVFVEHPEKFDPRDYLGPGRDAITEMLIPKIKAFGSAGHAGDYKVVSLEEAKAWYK
In short: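 Giardia FBPA (40 nM reagent) was preincubated 10 min at RT with compound (up to 57.5 uM final), then substrate plus GAPDH/TPI/NAD/arsenate coupling system with diaphorase/resazurin was added; resorufin fluorescence (525/598 nm) was read after 20 min.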
% is set by controls: 0 for no effect and ±100 for the full control effect; potency is the fitted concentration of half-maximal effect; tags give direction and shape of the fitted curve.
Note: nearly all actives have a fitted effect of over 55% in size.

Row | Structure (SMILES) | Potency | activity, negative = inhibition
1 | COc1ccc([N+](=O)[O-])cc1NC(=S)Nc1ccccc1 | inactive | 
2 | O=P(NS(=O)(=O)c1ccccc1)(Oc1ccccc1)Oc1ccccc1 | inconclusive: 19.9 µM [activator, single point] | 
3 | O=c1[nH]c2ccccc2c2cn(-c3ccccc3)nc12 | inactive | 
4 | O=C(CSc1nc2cc(S(=O)(=O)N3CCOCC3)ccc2o1)Nc1c(F)cccc1F | inconclusive: 3.15 µM [inhibitor, full curve, poor fit] | 
5 | N#CC(c1cccc(Cl)c1)c1ccc2c(C(F)(F)F)cc(C(F)(F)F)nc2n1 (stereo not given) | inactive | 
6 | CC1CCN(C(=O)C(C)NCc2ccc(F)cc2)CC1 (stereo not given) | inconclusive: 25.1 µM [inhibitor, partial curve] | 
7 | Cc1ccc(NC(=S)NC(=O)/C=C/c2ccco2)c(O)c1 | inactive | 
8 | N#Cc1cccc(NC(=O)CCC2CCCC2)c1 | inconclusive: 7.92 µM [activator, single point] | 
9 | COc1ccc(C(=O)NC(=S)Nc2ccc(S(N)(=O)=O)cc2)cc1 | inconclusive: 15.8 µM [inhibitor, partial curve] | 
10 | O=C(NC(=S)Nc1ccccc1Cl)c1cncc(Br)c1 | active: 6.31 µM | 
11 | O=C(c1cc(COc2c(F)cccc2F)on1)N(Cc1ccccc1)CC1CC1 | inactive | 
12 | CC(C)OC(=O)c1cc(NC(=O)C2C3C=CC(O3)C2C(=O)O)cc(C(=O)OC(C)C)c1 (stereo not given) | inactive | 
13 | O=c1cc(CSc2nc3cc(Cl)ccc3o2)nc2sccn12 | inconclusive: 19.9 µM [inhibitor, partial curve] | 
14 | CCOc1cc(/C=N/O)ccc1OCc1ccc([N+](=O)[O-])cc1 | inconclusive: 15.8 µM [inhibitor, single point] | 
15 | O=C(N/N=C/c1ccccn1)c1cccnc1 | active: 4.46 µM | 
16 | Cc1cnc(NC(=O)c2ccccn2)s1 | active: 7.92 µM | 
17 | CCc1ccc(NC(=O)C(C)OC(=O)c2ccc(NS(=O)(=O)c3ccc(C)c([N+](=O)[O-])c3)cc2)cc1 (stereo not given) | inactive | 
18 | CCCCCNC(=O)c1ccc2c(c1)ncn2-c1ccc(OC)cc1 | inactive | 
19 | Cc1ccc(-c2nnn(CC(=O)N(c3ccc(F)cc3)C(C(=O)NC3CCCC3)c3ccncc3)n2)o1 (stereo not given) | inactive | 
20 | Cc1ccc(C2C(C=Nc3c(C)n(C)n(-c4ccccc4)c3=O)=C(c3ccccc3)Oc3ccccc32)cc1 (stereo not given) | inactive | 
21 | N#Cc1cc(N)ccc1-n1cccc1 | inactive | 
22 | CCN(Cc1ccncc1)Cc1ccc(OC)c(OC)c1 | inconclusive: 14.1 µM [inhibitor, partial curve] | 
23 | O=C1CN(C(=O)CNCc2ccc(Cl)cc2)c2ccccc2N1 | inconclusive: 15.8 µM [inhibitor, partial curve] | 
24 | CC1=C(C(N)=O)C(c2cccs2)n2nc(-c3cccc(Cl)c3)nc2N1 (stereo not given) | inactive | 
25 | CCCOc1ccc2c(c1)C(=NN=C(N)N)c1cc(OCCC)ccc1-2 | inactive | 

Row | Structure (SMILES) | Potency | activity, negative = inhibition
26 | c1coc(C2Nc3cccc4cccc(c34)N2)c1 | inconclusive: 0.561 µM [inhibitor, full curve] | 
27 | COc1ccccc1CN(C)CC(=O)Nc1ccc(Cl)cc1C(F)(F)F | inconclusive: 17.7 µM [inhibitor, single point] | 
28 | O=C(COc1ccc(Br)cc1)N1CCN(Cc2c[nH]c3ccccc23)CC1 | inconclusive: 22.3 µM [inhibitor, single point] | 
29 | CNc1cccccc1=S | active: 9.98 µM | 
30 | N#Cc1cc2cc3c(cc2nc1N1CCCCC1)OCCO3 | active: 6.29 µM | 
31 | O=C(C1CCN(Cc2ccccc2O)CC1)N1CCN(Cc2ccc3c(c2)OCO3)CC1 | inconclusive: 22.4 µM [inhibitor, single point] | 
32 | O=[N+]([O-])c1ccc(/C([O-])=C(/C(=S)NCc2ccco2)[n+]2ccccc2)cc1 | inconclusive: 14.1 µM [inhibitor, partial curve] | 
33 | COCCNC(=O)CCCCCN1C(=O)CCC1=O |  | inconclusive: 34.7% [activator]
34 | COC(=O)[C@@H]1C[C@@]2(O)[C@H](O)[C@H](O)[C@H](O)C[C@H]2N1Cc1ccc(N2CCN(C)CC2)cc1 | inconclusive: 11.2 µM [inhibitor, partial curve] | 
35 | Nc1nc(-c2ccccc2)[nH]c(=O)c1N | inconclusive: 15.8 µM [inhibitor, partial curve] | 
36 | c1ccc(CNc2nc3ccccc3n2CCN2CCOCC2)nc1 | inconclusive: 19.9 µM [inhibitor, partial curve] | 
37 | Cc1cc([N+](=O)[O-])c(C)cc1-c1ccc(/C=N/NC(=O)c2cccnc2)o1 | inconclusive: 19.9 µM [inhibitor, partial curve] | 
38 | CO/N=C(/CS(=O)(=O)c1ccc(C)cc1)c1ccc(OC)cc1 | inconclusive: 15.8 µM [inhibitor, single point] | 
39 | Cc1[nH]n(-c2ncc(-c3ccccc3)s2)c(=O)c1C(c1ccc(Br)cc1)C(C#N)C#N (stereo not given) | inconclusive: 15.8 µM [activator, single point] | 
40 | COc1ccc2c(c1)C(C)=CC(C)(C)N2C(=O)Nc1ccccc1 | inconclusive: 5 µM [inhibitor, single point] | 
41 | O=C(CSc1ccc2nnc(-c3ccccn3)n2n1)NCc1ccco1 | inactive | 
42 | Fc1ccc(-n2c(=S)[nH]c3cccnc32)cc1 | active: 17.8 µM | 
43 | CC1CCc2[nH]c3ccc(C(=O)NCCCOC(C)C)cc3c2C1 (stereo not given) | inconclusive: 15.8 µM [inhibitor, single point] | 
44 | O=C(NP(=O)(N1CCOCC1)N1CCOCC1)C1=C(N2CCOCC2)/C(=C\c2ccccc2)CC1 | inactive | 
45 | Clc1cccc(CN2CCN(Cc3ccco3)CC2)c1 | active: 14.1 µM | 
46 | CC(C)c1ccc2c(c1)C(c1ccc(N3CCOCC3)cc1)=NNC(c1cccs1)=N2 | inactive | 
47 | Oc1ccccc1C(Nc1nccs1)c1ccc2cccnc2c1O (stereo not given) | inconclusive: 44.6 µM [inhibitor, single point] | 
48 | COC(=O)CC1=NN(c2ccccc2)C(=O)C1 | inconclusive: 17.7 µM [inhibitor, partial curve] | 
49 | CC1CC(Cl)CCC1C(=O)OC(C)(C)C (stereo not given) | inactive | 
50 | CC[C@H](C)[C@H](NC(=O)[C@@H](NC(=O)[C@@H](CC(=O)NO)Cc1ccccc1)[C@@H](C)CC)C(=O)O | inactive | 
